Results from the supplement of paper PMC12423691.
The other results are listed elsewhere or left out. Binding of human transcription factors and regulators to the viral nucleoprotein by AlphaScreen, crude cell-free proteins, amounts not normalised, one pass. Fold of the Venus control; higher = more signal. No active / inactive call. Single-pass screen; sequences are the whole Swiss-Prot entries looked up by name.

B1: PIAS2, O75928 (protein)
chain: MADFEELRNMVSSFRVSELQVLLGFAGRNKSGRKHDLLMRALHLLKSGCSPAVQIKIRELYRRRYPRTLEGLSDLSTIKSSVFSLDGGSSPVEPDLAVAGIHSLPSTSVTPHSPSSPVGSVLLQDTKPTFEMQQPSPPIPPVHPDVQLKNLPFYDVLDVLIKPTSLVQSSIQRFQEKFFIFALTPQQVREICISRDFLPGGRRDYTVQVQLRLCLAETSCPQEDNYPNSLCIKVNGKLFPLPGYAPPPKNGIEQKRPGRPLNITSLVRLSSAVPNQISISWASEIGKNYSMSVYLVRQLTSAMLLQRLKMKGIRNPDHSRALIKEKLTADPDSEIATTSLRVSLMCPLGKMRLTIPCRAVTCTHLQCFDAALYLQMNEKKPTWICPVCDKKAAYESLILDGLFMEILNDCSDVDEIKFQEDGSWCPMRPKKEAMKVSSQPCTKIESSSVLSKPCSVTVASEASKKKVDVIDLTIESSSDEEEDPPAKRKCIFMSETQSSPTKGVLMYQPSSVRVPSVTSVDPAAIPPSLTDYSVPFHHTPISSMSSDLPGLDFLSLIPVDPQYCPPMFLDSLTSPLTASSTSVTTTSSHESSTHVSSSSSRSETGVITSSGSNIPDIISLD
B2: DDX58, O95786 (protein)
chain: MTTEQRRSLQAFQDYIRKTLDPTYILSYMAPWFREEEVQYIQAEKNNKGPMEAATLFLKFLLELQEEGWFRGFLDALDHAGYSGLYEAIESWDFKKIEKLEEYRLLLKRLQPEFKTRIIPTDIISDLSECLINQECEEILQICSTKGMMAGAEKLVECLLRSDKENWPKTLKLALEKERNKFSELWIVEKGIKDVETEDLEDKMETSDIQIFYQEDPECQNLSENSCPPSEVSDTNLYSPFKPRNYQLELALPAMKGKNTIICAPTGCGKTFVSLLICEHHLKKFPQGQKGKVVFFANQIPVYEQQKSVFSKYFERHGYRVTGISGATAENVPVEQIVENNDIIILTPQILVNNLKKGTIPSLSIFTLMIFDECHNTSKQHPYNMIMFNYLDQKLGGSSGPLPQVIGLTASVGVGDAKNTDEALDYICKLCASLDASVIATVKHNLEELEQVVYKPQKFFRKVESRISDKFKYIIAQLMRDTESLAKRICKDLENLSQIQNREFGTQKYEQWIVTVQKACMVFQMPDKDEESRICKALFLYTSHLRKYNDALIISEHARMKDALDYLKDFFSNVRAAGFDEIEQDLTQRFEEKLQELESVSRDPSNENPKLEDLCFILQEEYHLNPETITILFVKTRALVDALKNWIEGNPKLSFLKPGILTGRGKTNQNTGMTLPAQKCILDAFKASGDHNILIATSVADEGIDIAQCNLVILYEYVGNVIKMIQTRGRGRARGSKCFLLTSNAGVIEKEQINMYKEKMMNDSILRLQTWDEAVFREKILHIQTHEKFIRDSQEKPKPVPDKENKKLLCRKCKALACYTADVRVIEECHYTVLGDAFKECFVSRPHPKPKQFSSFEKRAKIFCARQNCSHDWGIHVKYKTFEIPVIKIESFVVEDIATGVQTLYSKWKDFHFEKIPFDPAEMSK
B3: TCF12, Q99081 (protein)
chain: MNPQQQRMAAIGTDKELSDLLDFSAMFSPPVNSGKTRPTTLGSSQFSGSGIDERGGTTSWGTSGQPSPSYDSSRGFTDSPHYSDHLNDSRLGAHEGLSPTPFMNSNLMGKTSERGSFSLYSRDTGLPGCQSSLLRQDLGLGSPAQLSSSGKPGTAYYSFSATSSRRRPLHDSAALDPLQAKKVRKVPPGLPSSVYAPSPNSDDFNRESPSYPSPKPPTSMFASTFFMQDGTHNSSDLWSSSNGMSQPGFGGILGTSTSHMSQSSSYGNLHSHDRLSYPPHSVSPTDINTSLPPMSSFHRGSTSSSPYVAASHTPPINGSDSILGTRGNAAGSSQTGDALGKALASIYSPDHTSSSFPSNPSTPVGSPSPLTGTSQWPRPGGQAPSSPSYENSLHSLQSRMEDRLDRLDDAIHVLRNHAVGPSTSLPAGHSDIHSLLGPSHNAPIGSLNSNYGGSSLVASSRSASMVGTHREDSVSLNGNHSVLSSTVTTSSTDLNHKTQENYRGGLQSQSGTVVTTEIKTENKEKDENLHEPPSSDDMKSDDESSQKDIKVSSRGRTSSTNEDEDLNPEQKIEREKERRMANNARERLRVRDINEAFKELGRMCQLHLKSEKPQTKLLILHQAVAVILSLEQQVRERNLNPKAACLKRREEEKVSAVSAEPPTTLPGTHPGLSETTNPMGHM
B4: ZBTB38, Q8NAP3 (protein)
chain: MTVMSLSRDLKDDFHSDTVLSILNEQRIRGILCDVTIIVEDTKFKAHSNVLAASSLYFKNIFWSHTICISSHVLELDDLKAEVFTEILNYIYSSTVVVKRQETVTDLAAAGKKLGISFLEDLTDRNFSNSPGPYVFCITEKGVVKEEKNEKRHEEPAITNGPRITNAFSIIETENSNNMFSPLDLRASFKKVSDSMRTASLCLERTDVCHEAEPVRTLAEHSYAVSSVAEAYRSQPVREHDGSSPGNTGKENCEALAAKPKTCRKPKTFSIPQDSDSATENIPPPPVSNLEVNQERSPQPAAVLTRSKSPNNEGDVHFSREDENQSSDVPGPPAAEVPPLVYNCSCCSKAFDSSTLLSAHMQLHKPTQEPLVCKYCNKQFTTLNRLDRHEQICMRSSHMPIPGGNQRFLENYPTIGQNGGSFTGPEPLLSENRIGEFSSTGSTLPDTDHMVKFVNGQMLYSCVVCKRSYVTLSSLRRHANVHSWRRTYPCHYCNKVFALAEYRTRHEIWHTGERRYQCIFCLETFMTYYILKNHQKSFHAIDHRLSISKKTANGGLKPSVYPYKLYRLLPMKCKRAPYKSYRNSSYENARENSQMNESAPGTYVVQNPHSSELPTLNFQDTVNTLTNSPAIPLETSACQDIPTSANVQNAEGTKWGEEALKMDLDNNFYSTEVSVSSTENAVSSDLRAGDVPVLSLSNSSENAASVISYSGSAPSVIVHSSQFSSVIMHSNAIAAMTSSNHRAFSDPAVSQSLKDDSKPEPDKVGRFASRPKSIKEKKKTTSHTRGEIPEESNYVADPGGSLSKTTNIAEETSKIETYIAKPALPGTSTNSNVAPLCQITVKIGNEAIVKRHILGSKLFYKRGRRPKYQMQEEPLPQGNDPEPSGDSPLGLCQSECMEMSEVFDDASDQDSTDKPWRPYYNYKPKKKSRQLKKMRKVNWRKEHGNRSPSHKCKYPAELDCAVGKAPQDKPFEEEETKEMPKLQCELCDGDKAVGAGNQGRPHRHLTSRPYACELCAKQFQSPSTLKMHMRCHTGEKPYQCKTCGRCFSVQGNLQKHERIHLGLKEFVCQYCNKAFTLNETLKIHERIHTGEKRYHCQFCFQRFLYLSTKRNHEQRHIREHNGKGYACFQCPKICKTAAALGMHQKKHLFKSPSQQEKIGDVCHENSNPLENQHFIGSEDNDQKDNIQTGVENVVL

target: nucleoprotein N of Crimean-Congo hemorrhagic fever virus; assay: AlphaScreen luminescence signal relative to Venus negative control (fold); higher = stronger binding to CCHFV N
Protocol: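 AlphaScreen binding of cell-free made, FLAG-GST-tagged human transcription factors and regulators (crude translation products) to biotinylated N protein; signal as fold of the FLAG-GST-Venus control. One pass.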

Binder | AlphaScreen luminescence signal
B1 | 6.56
B2 | 2.42
B3 | 1.91
B4 | 1.95
